According to PMC4336329 (PLoS ONE, 2015):
The whole screen tested about 310,000 compounds, of which about 2,200 (0.71%) showed an effect of 50% or more. The effect is printed as a negative number. Some of the results follow.

biological target: human ether-à-go-go-related gene (hERG) potassium channel (human, UniProt Q12809); experiment: primary screen, population patch clamp on CHO cells stably expressing hERG
Sequence (Q12809 whole entry, looked up): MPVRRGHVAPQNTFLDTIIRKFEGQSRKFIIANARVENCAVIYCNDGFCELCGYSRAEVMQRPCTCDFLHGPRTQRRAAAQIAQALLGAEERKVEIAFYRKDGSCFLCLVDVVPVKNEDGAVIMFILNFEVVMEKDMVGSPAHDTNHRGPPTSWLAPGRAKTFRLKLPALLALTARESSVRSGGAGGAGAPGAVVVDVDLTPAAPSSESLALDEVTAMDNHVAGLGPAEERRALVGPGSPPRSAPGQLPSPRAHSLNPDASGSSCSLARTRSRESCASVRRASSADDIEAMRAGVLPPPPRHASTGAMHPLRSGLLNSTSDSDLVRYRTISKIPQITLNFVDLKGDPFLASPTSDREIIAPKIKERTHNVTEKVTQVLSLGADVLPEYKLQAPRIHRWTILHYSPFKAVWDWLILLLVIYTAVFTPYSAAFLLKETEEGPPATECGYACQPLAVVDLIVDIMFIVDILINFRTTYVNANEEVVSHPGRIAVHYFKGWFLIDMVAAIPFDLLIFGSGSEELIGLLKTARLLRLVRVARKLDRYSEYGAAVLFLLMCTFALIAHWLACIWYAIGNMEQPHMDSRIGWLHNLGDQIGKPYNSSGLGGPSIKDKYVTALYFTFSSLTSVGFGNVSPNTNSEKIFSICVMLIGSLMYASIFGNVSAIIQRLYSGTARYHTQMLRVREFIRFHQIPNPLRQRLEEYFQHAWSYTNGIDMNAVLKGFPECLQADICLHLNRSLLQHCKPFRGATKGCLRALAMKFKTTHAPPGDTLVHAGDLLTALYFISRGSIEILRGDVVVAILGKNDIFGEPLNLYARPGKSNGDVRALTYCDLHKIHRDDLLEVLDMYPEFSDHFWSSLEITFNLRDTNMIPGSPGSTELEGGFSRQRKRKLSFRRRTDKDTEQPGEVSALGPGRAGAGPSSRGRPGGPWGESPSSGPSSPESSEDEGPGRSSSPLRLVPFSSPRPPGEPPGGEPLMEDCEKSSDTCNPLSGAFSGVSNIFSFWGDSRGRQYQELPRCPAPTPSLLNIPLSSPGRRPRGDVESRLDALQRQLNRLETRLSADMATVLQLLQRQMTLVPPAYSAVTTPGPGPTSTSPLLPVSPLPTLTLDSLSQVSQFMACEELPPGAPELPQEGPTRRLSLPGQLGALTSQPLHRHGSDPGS

| Compound | hERG current change (%, negative = inhibition) at 1uM |
| --- | --- |
| O=C(NNC(=S)NC(=O)C12CC3CC(CC(C3)C1)C2)c1ccncc1 | 14.1% |
| COc1ccc([C@H]2CC(=O)C=C(c3cccc(C(C)C)c3)C2)cc1 | 9.78% |
| CCOc1ccc(S(=O)(=O)N2CCN=C2c2ccccc2)cc1 | -6.45% |
| COc1cccc(CNC(=O)CCC2CCCN(C(=O)c3cscn3)C2)c1 (centres unmarked) | 11.3% |
| COc1ccc(CCNC(=O)c2cc(S(=O)(=O)N3CCOCC3)ccc2F)cc1 | 7.05% |
| CCC(CC)NC(=O)COC(=O)c1cc(SC)ccc1Cl | 7.25% |
| O=C(Nc1cc(SCCO)cc([N+](=O)[O-])c1)c1ccc(Br)o1 | 6.99% |
| COC(=O)Cc1ccc(NC(=S)NCc2ccc(Cl)cc2)cc1 | 3.97% |
| Cc1onc(-c2ccccc2Cl)c1C(=O)Nc1ccccc1 | 6.42% |
| COc1ccc(NC(=O)C2CCN(c3cnccn3)CC2)cc1Cl | 6.69% |
| Cc1cc(C)c(C)c(S(=O)(=O)NCc2ccc(C(=O)N3CCCC3)cc2)c1C | 12.4% |
| CNc1nc2cccnc2s1 | 14.5% |
| O=C(c1ccc(C#CC2(O)CCCCC2)cc1)N1CCN(C(c2ccccc2)c2ccccc2)CC1 | 8.48% |
| NC(=O)Cn1c(=O)n(CCCC(=O)NC2CCN(Cc3ccccc3)CC2)c(=O)c2ccccc21 | 1.96% |
| COC(=O)c1ccc(N2CCc3ccccc32)c([N+](=O)[O-])c1 | 19.5% |
| C[C@@H]1C(=O)O[C@@H]2CC34[C@H]5C[C@@H](C(C)(C)C)C36[C@H](OC(=O)[C@@H]6O)OC4(C(=O)O5)[C@@]12O (some centres unmarked) | 12.3% |
| COCCN(C(=O)CC(C)(C)C)c1nnc(-c2cccnc2)s1 | 6.36% |
| O=C1SCC(c2ccc(Cl)cc2Cl)=NN1Cc1nnc(-c2ccccc2)o1 | 10.6% |
| Nc1nc(-c2ccccc2)cc(-c2ccccc2O)n1 | 5.13% |

| Compound | hERG current change (%, negative = inhibition) at 1uM |
| --- | --- |
| C/C(=N/OCO/N=C(\C)c1ccccc1F)c1ccccc1F | -1.93% |
| Cc1ccc2nc(SCC(=O)N3CCC(C)CC3)nc(=O)n2c1 | -3.85% |
| Fc1cnc(N2CCOCC2)nc1N1CCOCC1 | 4.55% |
| Cc1ccc(S(=O)(=O)N2CCN(C(=O)COC(=O)C3(C)CC3(Cl)Cl)CC2)c(C)c1 (centres unmarked) | 3.88% |
| CCOC(=O)N1CCN(Cc2ccc3ccccc3c2)CC1 | 15.1% |
| O=C(NCC(=O)N(c1cccnc1)C(C(=O)NC1CCCC1)c1cccs1)c1ccco1 (centres unmarked) | 11.6% |
| Cc1ccc(S(=O)(=O)N2CCCCC2)cc1NC(=O)C1CCCO1 (centres unmarked) | -0.457% |
| COc1ccc(-c2nnc(SCC(=O)Nc3cc(C)on3)o2)cc1 | 4.41% |
| Nc1ccc2nn(-c3cc([N+](=O)[O-])ccc3O)nc2c1 | 11.2% |
| CCc1ccc(C(O)(CC)C(CN2CCOCC2)c2ccccc2)cc1.Cl (centres unmarked) | 11.3% |
| COc1ccccc1OCc1ccc(C(=O)N2N=C(C(F)F)CC2(O)C(F)F)o1 (centres unmarked) | 6.02% |
| Cc1nc(NCC2CCCO2)c2nnn(Cc3ccccc3Cl)c2n1 (centres unmarked) | 0.623% |
| CC(C)(C)NC(=O)NC(=O)COC(=O)c1ccc(OC(F)(F)F)cc1 | 5.72% |
| COc1ccc(C(=O)Cc2cc(OC)c(OC)cc2C(=O)c2ccccc2F)cc1OC | -0.899% |
| O=C(CSc1ncnc2c1cnn2-c1cccc(Cl)c1)NCC1CCCO1 (centres unmarked) | 11.5% |
| O=C(Nc1ccccn1)C(F)(F)C(F)(F)C(F)(F)C(F)(F)C(=O)Nc1ccccn1 | 7.68% |
| O=C(CCc1ccccc1)OCC(=O)c1ccc(Br)cc1 | 14.7% |
| S=C(Nc1ccccc1)Nc1cccc(Br)c1 | 8.26% |
| CSC(=S)N/N=C/c1ccccc1 | 16.6% |

| Compound | hERG current change (%, negative = inhibition) at 1uM |
| --- | --- |
| Cl.O=[N+]([O-])c1ccc(N2CCCNCC2)c2ncccc12 | -17.1% |
| CCOc1ccc(NC(=O)C(c2ccccn2)N(C(=O)CCl)c2ccc(OC)cc2)cc1 (centres unmarked) | -0.479% |
| CCOc1cc(NC(=O)c2ccccn2)c(OCC)cc1NC(=O)c1cccc(C)c1 | -3.34% |
| COc1cc(OC)c(OC)cc1CN1CCCC(C(=O)c2ccccc2SC)C1 (centres unmarked) | -15.5% |
| CCOC(=O)C1(C)C=C(Nc2cccc(OC)c2)C(=O)N1c1ccccc1 (centres unmarked) | 6.39% |
| CCOCCCNC(=O)C(NC(=O)c1ccc(NC(C)=O)cc1)c1ccc(C)cc1 (centres unmarked) | -15.3% |
| CN(C(=O)CSc1nc2[nH]ncc2c(=O)[nH]1)c1ccccc1 | 8.5% |
| COCCN(C(=O)COc1ccccc1C#N)c1c(N)n(Cc2ccccc2)c(=O)[nH]c1=O | 11.1% |
| Cc1cccc(N(C(=O)CCC(=O)Nc2cc(C)on2)C(C(=O)NC2CCCC2)c2ccccc2)c1 (centres unmarked) | 13% |
| O=C(O)c1ccc(COc2ccc(/C=N/NC(=O)c3cccs3)cc2)cc1 | 4.37% |
| O=C(O)CCCc1ccc2ccc3cccc4ccc1c2c34 | 13.3% |
| Cc1ccc(S(=O)(=O)NN2C(=O)c3ccccc3NC2c2ccccn2)cc1 (centres unmarked) | 5.92% |
| CCCN(C1CCS(=O)(=O)C1)S(=O)(=O)c1ccc2ccccc2c1 (centres unmarked) | -3.62% |
| O=C(NC(=S)NCC1CCCO1)c1ccccc1F (centres unmarked) | 9.67% |
| NC(=O)CSc1nnc(NC(=O)c2ccc(Br)o2)s1 | 16% |
| COC(=O)c1cc(S(=O)(=O)N2CCC(c3ccccc3)C2)c[nH]1 (centres unmarked) | 2.25% |
| COc1ccc(NC(=O)c2ccc(Br)o2)cc1 | 4.84% |
| COc1ccc2cc(C)c(SCC(=O)Nc3cc(C)on3)nc2c1 | 9.52% |
